The results in this text go back to the supplement of paper PMC6609913.

Where a name gives a salt, the structure may show the parent alone. ± gives the standard deviation of the averaged measurements. Whole data set: some 1,300 compounds, median “normalised cell viability” near 1, cut for the lowest 2% near 0.14. The list shows a part of the results.

The subject of this experiment is V-C8 (BRCA2-deficient hamster cells). The experiment in a line: normalised cell viability (fraction of plate median); higher = more viable cells (less toxic). The following applies: 5 µM. The procedure, abridged:
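Library drugs, held as 10 mM stocks in DMSO, were diluted to 5 μM in 100 μl medium and added to 96-well plates of V-C8 hamster cells, either lacking BRCA2 or with BRCA2 restored, 24 h after seeding. Plates ran for 3 days (screen 1) or 6 days (screen 2), alongside solvent-only wells. Viability came from a resazurin readout, median-plate normalised, as the mean of triplicate wells.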

Consider `NC(=O)N/N=C/c1ccc([N+](=O)[O-])o1` [Nitrofural], for which the normalised cell viability reads like this: (treatment time: 3 days) 0.51 ± 0.015; (treatment time: 6 days) 0.585 ± 0.037.
For `CN1CCCCC1CCN1c2ccccc2Sc2ccc([S+](C)[O-])cc21` (stereo not given) [Mesoridazine besylate], in that order: 1.07 ± 0.07 and 1.07 ± 0.017.
For `CN1CCCC(n2nc(Cc3ccc(Cl)cc3)c3ccccc3c2=O)CC1` (stereo not given) [Azelastine HCl], in that order: 0.96 ± 0.058 and 0.835 ± 0.087.
The like results for `CN(C)CCC[C@@]1(c2ccc(F)cc2)OCc2cc(C#N)ccc21` [Escitalopram] were, in that order, 1.04 ± 0.028 and 0.843 ± 0.034.
Take `CCCC(=O)Nc1ncnc2c1ncn2[C@@H]1O[C@@H]2COP(=O)(O)O[C@H]2[C@H]1OC(=O)CCC` [Bucladesine sodium salt]: the normalised cell viability is, setting by setting: (treatment time: 3 days) 0.995 ± 0.021; (treatment time: 6 days) 1.04 ± 0.014.
For `CCN1CCN(C(=O)N[C@@H](C(=O)N[C@@H]2C(=O)N3[C@@H]2SC(C)(C)[C@@H]3C(=O)O)c2ccccc2)C(=O)C1=O` [Piperacillin sodium salt], in that order: 1.1 ± 0.044 and 1.022 ± 0.0042.
For the compound `CO[C@@H]1[C@@H](OC(N)=O)[C@@H](O)[C@H](Oc2ccc3c(O)c(NC(=O)c4ccc(O)c(CC=C(C)C)c4)c(=O)oc3c2C)OC1(C)C` [Novobiocin sodium salt], the normalised cell viability reads like this: (treatment time: 3 days) 0.987 ± 0.029; (treatment time: 6 days) 1.07 ± 0.025.
The like results for `CC(C)(C)NC[C@H](O)COc1nsnc1N1CCOCC1` [Timolol maleate salt] were, in that order, 1.01 ± 0.022 and 1.07 ± 0.065.
The like results for `O=C(Nc1cccc2c(=O)cc(-c3nnn[nH]3)oc12)c1ccc(OCCCCc2ccccc2)cc1` [Pranlukast] were, in that order, 1.05 ± 0.047 and 1.07 ± 0.055.
As to `NCCCC[C@H](N[C@@H](CCc1ccccc1)C(=O)O)C(=O)N1CCC[C@H]1C(=O)O` [Lisinopril], the normalised cell viability is, setting by setting: (treatment time: 3 days) 0.966 ± 0.085; (treatment time: 6 days) 1.11 ± 0.068.
Regarding `COC1=C(OC)C(=O)C(CCCCCCCCCCO)=C(C)C1=O` [Idebenone], the normalised cell viability (treatment time: 3 days) came to 0.648 ± 0.036 and the normalised cell viability (treatment time: 6 days) was found to be 0.713 ± 0.04.
The like results for `CCOC(=O)[C@H](CCc1ccccc1)N[C@H]1CCc2ccccc2N(CC(=O)O)C1=O` [Benazepril HCl] were, in that order, 1.04 ± 0.057 and 1.105 ± 0.011.
For `CCOC(=O)OC(C)OC(=O)[C@@H]1N2C(=O)[C@@H](NC(=O)[C@H](N)c3ccccc3)[C@H]2SC1(C)C` (stereo not given in full) [Bacampicillin hydrochloride], in that order: 0.908 ± 0.032 and 0.986 ± 0.062.
The like results for `CC(=O)c1ccc(S(=O)(=O)NC(=O)NC2CCCCC2)cc1` [Acetohexamide] were, in that order, 1.14 ± 0.11 and 1.04 ± 0.05.
`CCCCC[C@H](O)/C=C/[C@@H]1[C@@H](C/C=C\CCCC(=O)O)[C@@H](O)C[C@H]1O` [Dinoprost trometamol]: the normalised cell viability was found to be 1.05 ± 0.032 (treatment time: 3 days) and 1.09 ± 0.012 (treatment time: 6 days).
For `CCCNC(C)C(=O)Nc1ccccc1C` (stereo not given) [Prilocaine hydrochloride], in that order: 1.05 ± 0.044 and 0.985 ± 0.024.
For `COc1ccc(CN(CCN(C)C)c2ccccn2)cc1` [Pyrilamine maleate], in that order: 1.05 ± 0.056 and 1.03 ± 0.06.
As to `CC(COc1ccccc1)N(CCCl)Cc1ccccc1` (stereo not given) [Phenoxybenzamine hydrochloride], the normalised cell viability runs as follows: (treatment time: 3 days) 1.03 ± 0.071; (treatment time: 6 days) 0.965 ± 0.14.
As for `Cc1cc(=O)oc2cc(O)ccc12` [Hymecromone], the normalised cell viability (treatment time: 3 days) was found to be 1.02 ± 0.046 and the normalised cell viability (treatment time: 6 days) was determined as 1.04 ± 0.013.
The like results for `CCOC(=O)c1ccc(OC(=O)CCCCCNC(=N)N)cc1` [Gabexate mesilate] were, in that order, 0.925 ± 0.064 and 0.978 ± 0.021.
Regarding `CCCN[C@H]1CCc2nc(N)sc2C1` [Pramipexole], the normalised cell viability runs as follows: (treatment time: 3 days) 0.957 ± 0.04; (treatment time: 6 days) 0.965 ± 0.031.
The like results for `c1ccc(C2CN3CCSC3=N2)cc1` (stereo not given) [Tetramisole hydrochloride] were, in that order, 1.06 ± 0.055 and 1.04 ± 0.029.
For `C=C1c2cccc(O)c2C(=O)C2=C(O)[C@]3(O)C(=O)C(C(N)=O)=C(O)[C@@H](N(C)C)[C@@H]3[C@@H](O)[C@H]12` [Methacycline hydrochloride], in that order: 0.903 ± 0.013 and 0.92 ± 0.024.
The like results for `Cn1c(=O)c2nc[nH]c2n(C)c1=O` [Theophylline monohydrate] were, in that order, 0.997 ± 0.097 and 1.03 ± 0.025.
Take `Cc1scc2c1N(C(=O)CN1CCN(C)CC1)c1ccccc1NC2=O` [Telenzepine dihydrochloride]: the normalised cell viability by setting is: (treatment time: 3 days) 1.02 ± 0.047; (treatment time: 6 days) 1.03 ± 0.041.
For `CO[C@H]1/C=C/O[C@@]2(C)Oc3c(C)c(O)c4c(c3C2=O)C2=NC3(CCN(CC(C)C)CC3)NC2=C(NC(=O)/C(C)=C\C=C\[C@H](C)[C@H](O)[C@@H](C)[C@@H](O)[C@@H](C)[C@H](OC(C)=O)[C@@H]1C)C4=O` [Rifabutin], in that order: 0.973 ± 0.096 and 0.876 ± 0.032.
For `O=C(Cn1ccnc1[N+](=O)[O-])NCCO` [Etanidazole], in that order: 1.02 ± 0.015 and 1.005 ± 0.0075.
For `COc1c(O[C@@H]2O[C@H](CO)[C@@H](O)[C@H](O)[C@H]2O)cc2c(c1OC)-c1ccc(SC)c(=O)cc1[C@@H](NC(C)=O)CC2` [Thiocolchicoside], in that order: 1.22 ± 0.36 and 0.97 ± 0.017.
On to `CN(C)CCN(Cc1cccs1)c1ccccn1` [Methapyrilene hydrochloride], for which the normalised cell viability is, setting by setting: (treatment time: 3 days) 1.05 ± 0.066; (treatment time: 6 days) 1.05 ± 0.033.
Take `NC(=O)N1c2ccccc2C=Cc2ccccc21` [Carbamazepine]: the normalised cell viability reads like this: (treatment time: 3 days) 1.04 ± 0.057; (treatment time: 6 days) 0.979 ± 0.053.
